From article PMC11494340, “High-throughput screening for small-molecule stabilizers of misfolded glucocerebrosidase in Gaucher disease and Parkinson’s disease” (Proceedings of the National Academy of Sciences of the …, 2024)
Structures can show the parent of a compound that is named as a salt. Where two headings read alike, the source gives them in different places.

Assays:
[1] = target: T1, GCase-L444P lysosomal activity in HiBiT-GCase-L444P H4 cells (Homo sapiens, UniProt P04062, L483P); experiment: LysoFix-GBA high-content lysosomal GCase activity assay
T1 sequence (P04062 40-536 L483P): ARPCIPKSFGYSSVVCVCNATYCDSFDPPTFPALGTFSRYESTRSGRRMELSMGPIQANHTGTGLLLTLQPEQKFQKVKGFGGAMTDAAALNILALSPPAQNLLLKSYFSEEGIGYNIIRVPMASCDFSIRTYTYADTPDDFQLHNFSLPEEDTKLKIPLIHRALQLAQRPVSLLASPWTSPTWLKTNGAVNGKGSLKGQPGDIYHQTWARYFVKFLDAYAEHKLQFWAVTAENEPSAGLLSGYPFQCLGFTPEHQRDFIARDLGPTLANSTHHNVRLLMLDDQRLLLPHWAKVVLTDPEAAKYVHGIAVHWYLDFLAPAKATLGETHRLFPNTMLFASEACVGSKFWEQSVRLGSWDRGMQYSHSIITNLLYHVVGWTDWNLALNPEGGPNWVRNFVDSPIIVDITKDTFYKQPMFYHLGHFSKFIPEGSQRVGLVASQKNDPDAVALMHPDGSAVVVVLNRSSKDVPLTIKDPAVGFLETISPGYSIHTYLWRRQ

[2] = target: T2, GCase in spots of LAMP1, HiBiT-GCase-L444P H4 cells (Homo sapiens, UniProt P04062, L483P); experiment: hGCase-1/23 immunofluorescence assay of GCase translocation to the lysosome; format: cell-based; details: ~34 h
T2 construct: expressed in transfected cells; host or cells: GBA1-KO H4 human neuroglioma cells, one copy at the CLYBL safe-harbor locus, CAG promoter
T2 sequence (P04062 40-536 L483P): T1 sequence (P04062 40-536 L483P)

[3] = target: T3, GCase in HiBiT-GCase-L444P H4 cells (Homo sapiens, UniProt P04062, L483P); experiment: GCase activity assay (4-MUG) in lysates of compound-treated cells; format: cell-based
T3 construct: expressed in transfected cells; host or cells: GBA1-KO H4 human neuroglioma cells, one copy at the CLYBL safe-harbor locus, CAG promoter
T3 sequence (P04062 40-536 L483P): T1 sequence (P04062 40-536 L483P)

[4] = test system: GluSph accumulation in HiBiT-GCase-L444P H4 cells; experiment: Glucosylsphingosine (GluSph) levels by SFC-MS/MS; format: cell-based, human
HiBiT-GCase-L444P [5] = target: T4, HiBiT-GCase-L444P (Homo sapiens, UniProt P04062, L483P); set-up: AUC: unit not given beside the values; details: for EC50: n = 3; for CC-v2: qHTS curve class
T4 sequence (P04062 40-536 L483P): T1 sequence (P04062 40-536 L483P)

HiBiT-GCase-L444P [6] = target: T4, HiBiT-GCase-L444P; experiment: cell-based
[7] = test system: HiBiT-GCase-L444P H4 cells; experiment: CellTiter-Glo cytotoxicity testing
[8] = 24 h compound incubation, LysoFix-GBA 5 μM
[9] = normalized to DMSO, 100% efficacy reflects a doubling of GCase levels
[10] = follow-up screen, 24 h, relative to DMSO control

| Compound | AC50 (HiBiT-GCase-L444P [5]; follow-up screen, 24 h) | AUC (HiBiT-GCase-L444P [5]; follow-up screen, 24 h) | CC-v2 (HiBiT-GCase-L444P [5]; follow-up screen, 24 h) | Efficacy (HiBiT-GCase-L444P [5]; [10]) | other results |
| --- | --- | --- | --- | --- | --- |
| O[C@H]1[C@H](O)CNC[C@@H]1C(F)F [AT3375] | – | – | – | – | LysoFix-GBA response (GCase-L444P lysosomal activity) [1, 8]: inhibited |
| OC[C@H]1CNC[C@@H](O)[C@@H]1O [Isofagomine] | – | – | – | – | LysoFix-GBA response (GCase-L444P lysosomal activity) [1, 8]: inhibitory LysoFix-GBA response |
| O=C(COc1ccccc1C(=O)Nc1ccc(I)cc1)Nc1ccc(I)cc1 [NCGC326, N-(4-iodophenyl)-2-(2-((4-iodophenyl)amino)-2-oxoethoxy)benzamide] | 11.2 µM | 333.5 | 1.1 | – | Increase in lysosomal GCase staining relative to DMSO ([2]; 25 μM): 1.45 fold; activity at 25 µM ([3]; 25 μM, 3 d, normalized to HiBiT-WT+DMSO): 5.8%; Effect on GluSph accumulation ([4]; 10 μM, 3 d): effective in reversing GluSph accumulation; Effect on GluSph accumulation ([4]; 25 μM, 3 d): completely reversed lipid accumulation; Increased efficacy relative to NCGC607 (HiBiT-GCase-L444P [5]; 140% vs. 54%): ~ 3 fold; EC50 (HiBiT-GCase-L444P [5]; follow-up screen, 24 h): 11.2 µM; Efficacy (HiBiT-GCase-L444P [5]; [9]): 140.2%; LysoFix-GBA response (GCase-L444P lysosomal activity) ([1]; 72 h compound incubation): up to twofold |
| CC[C@H](O)[C@@H](C)[C@H]1O[C@@H]1C[C@H](C)/C=C/C=C(\C)[C@H]1OC(=O)C[C@H](O)CC[C@@](C)(O)[C@@H](OC(C)=O)/C=C/[C@@H]1C [NCGC00347424-08, Pladienolide B] | – | 1014.3 | 1.1 | 267 | Increase in lysosomal GCase staining relative to DMSO ([2]; 100 nM): threefold increase; activity at 0.1 µM ([3]; read-out: GCase activity (%) HiBiT-L444P): 5.9%; Effect on GluSph accumulation ([4]; 100 nM, 48 h): a reduction in GluSph levels was observed; Efficacy (HiBiT-GCase-L444P [5]; [9]): 266.5%; AC50 (HiBiT-GCase-L444P [6]): 0.00943 µM; EC50 (HiBiT-GCase-L444P [6]): 0.0094 µM; Cytotoxicity ([7]; listed as Pladienolide B): strong cytotoxicity; Cytotoxicity ([7]; listed as pladienolide B): severe cytotoxic effect; LysoFix-GBA response (GCase-L444P lysosomal activity) [1, 8]: two- to fourfold |
| Nc1c(Br)cc(Br)cc1CN[C@H]1CC[C@H](O)CC1 [NCGC00371077-02, Ambroxol HCl] | – | – | – | – | Effect on GluSph accumulation ([4]; 156.25 nM, 3 d): did not show an effect |
| O=C(COc1ccc(Cl)cc1)N[C@H]1CC[C@H](NC(=O)COc2ccc(Cl)cc2)CC1 [NCGC00384174-12, trans-ISRIB] | 0.0119 µM | 181.8 | 1.2 | – | activity at 1.25 µM ([3]; 1.25 μM, 3 d, normalized to HiBiT-WT+DMSO): 3.2%; Effect on GluSph accumulation ([4]; 1.25 μM, 3 d): did not show an effect; EC50 (HiBiT-GCase-L444P [5]; follow-up screen, 24 h): 0.0119 µM; Efficacy (HiBiT-GCase-L444P [5]; [9]): 52.1%; LysoFix-GBA response (GCase-L444P lysosomal activity) [1, 8]: moderate efficacy |
| N#Cc1cn([C@@H]2O[C@H](CO)[C@@H](O)[C@H]2O)c2ncnc(N)c12 [NCGC00387257-01, Toyocamycin] | 2.7 µM | 14.5 | 1.1 | 140 | EC50 (HiBiT-GCase-L444P [5]; follow-up screen, 24 h): 2.66 µM; Efficacy (HiBiT-GCase-L444P [5]; [9]): 139.6%; Cytotoxicity [7]: cytotoxicity |
| COc1cccc(NC[C@@H](O)Cn2c3ccc(Br)cc3c3cc(Br)ccc32)c1 [NCGC00408808-01, (R)-P7C3-Ome] | 10.6 µM | 157.8 | 1.1 | 264 | – |
| O=C(O)C1(c2ccc(-c3ccc(Cl)c(Cl)c3)c(F)c2)CC1 [NCGC00408905-01, CHF 5074] | 21.1 µM | 113.4 | 1.1 | 124 | – |
| C=C1CN(Cc2ccc(C(=O)Nc3ccccc3N)cc2)C(=O)c2ccccc21 [NCGC00480746-01, MI 192] | 1.7 µM | 200.3 | 1.1 | 117 | – |
| Cc1sc2c(c1C)C(c1ccc(Cl)cc1)=N[C@@H](CC(=O)Nc1ccc(OCCOCCOCCOCCNc3cccc4c3C(=O)N(C3CCC(=O)NC3=O)C4=O)cc1)c1nnc(C)n1-2 (some centres unmarked) [NCGC00483927-03, ARV-825] | 0.0473 µM | 333.1 | 1.3 | – | EC50 (HiBiT-GCase-L444P [5]; follow-up screen, 24 h): 0.0473 µM; Efficacy (HiBiT-GCase-L444P [5]; [9]): 86.9%; LysoFix-GBA response (GCase-L444P lysosomal activity) [1, 8]: two- to fourfold |
| Cc1sc2c(c1C)C(c1ccc(Cl)cc1)=N[C@@H](CC(=O)NCCCCNC(=O)COc1cccc3c1C(=O)N(C1CCC(=O)NC1=O)C3=O)c1nnc(C)n1-2 (some centres unmarked) [NCGC00483928-02, dBET1] | 4.2 µM | 251.3 | 1.1 | 215 | – |
| Clc1cccc(C2CCN(CCCOc3ccc4scnc4c3)CC2)c1Cl [NCGC00510336-01, UNC 9994 hydrochloride] | 42.1 µM | -30.0 | 1.2 | 42 | – |
| O=C(NO)c1cnc(NC2(c3ccccc3)CC2)nc1 [NCGC00511370-02, ACY-738] | 7.5 µM | 409.2 | 1.1 | – | – |
| O=C(CCc1ccc(CN[C@H](C(=O)OC2CCCC2)C2CCCCC2)cn1)NO [NCGC00522525-01, HDAC-IN-3] | 1.1 µM | 837.5 | 1.1 | 475 | – |
| CC(C)C[C@H](NC(=O)[C@H](Cc1ccccc1)NC(=O)c1cnccn1)B(O)O [bortezomib] | – | – | – | – | LysoFix-GBA response (GCase-L444P lysosomal activity) [1, 8]: negative |

The next lines start with results.

| AC50 (HiBiT-GCase-L444P [5]; follow-up screen, 24 h) | AUC (HiBiT-GCase-L444P [5]; follow-up screen, 24 h) | CC-v2 (HiBiT-GCase-L444P [5]; follow-up screen, 24 h) | Efficacy (HiBiT-GCase-L444P [5]; [10]) | Compound | other results |
| --- | --- | --- | --- | --- | --- |
| 0.133 µM | 919.1 | 1.1 | – | Cc1[nH]c2ccccc2c1CCNCc1ccc(/C=C/C(=O)NO)cc1 [NCGC00263117-09, Panobinostat] | Increase in lysosomal GCase staining relative to DMSO ([2]; 10 μM): 1.6 fold; EC50 (HiBiT-GCase-L444P [5]; follow-up screen, 24 h): 0.133 µM; Efficacy (HiBiT-GCase-L444P [5]; [9]): 347.1%; LysoFix-GBA response (GCase-L444P lysosomal activity) [1, 8]: two- to fourfold |
| 1.5 µM | 92.0 | 1.1 | – | Cc1cc(OCc2nnc(SC3CCCC3)n2-c2cccnc2)ccc1-c1ccc(S(C)(=O)=O)cc1 [NCGC00371131-03, NMS-873] | LysoFix-GBA response (GCase-L444P lysosomal activity) [1, 8]: inactive |
| 0.0211 µM | 292.6 | 1.2 | – | CC[C@H](C)[C@H](NC(=O)[C@H]([C@@H](C)CC)N(C)C(C)=O)C(=O)N[C@H](C(=O)N[C@@H](CC(C)C)C(=O)[C@@]1(C)CO1)[C@@H](C)O [NCGC00389337-01, Epoxomicin] | EC50 (HiBiT-GCase-L444P [5]; follow-up screen, 24 h): 0.0211 µM; Efficacy (HiBiT-GCase-L444P [5]; [9]): 73.2% |
| 10.6 µM | 121.6 | 1.1 | 137 | Cc1cccc2c1NC(=O)C2(c1ccc(O)cc1)c1ccc(O)cc1 [NCGC00408892-01, BHPI] | – |
| 23.7 µM | 112.0 | 2.4 | 71 | COc1cc(/C=C/C(=O)NCCn2c(C(F)(F)F)cc3ccccc32)cc(OC)c1OC [NCGC00484068-02, TG6-10-1] | – |
| 3.3 µM | 516.9 | 1.1 | 348 | Cc1nn(C)cc1CN1CCC(c2ccc(C(=O)Nc3ccccc3N)cc2)CC1 [NCGC00522526-01, HDAC-IN-4] | – |
| 8.4 µM | 19.4 | 1.2 | 41 | O=C(NO)c1cnc(NC2(c3cccc(F)c3)CCCCC2)nc1 [NCGC00531749-01, ACY-775] | – |
| 89.1 µM | -9.7 | 1.2 | 55 | CCCCCOC1CCC(NC(=O)c2cnn3c(C)cc(C)nc23)CC1 (centres unmarked) [NCGC00532316-03, LTI-291] | – |
| 16.8 µM | 276.4 | 1.1 | – | Nc1cc(F)ccc1NC(=O)c1ccc(CNC(=O)/C=C/c2cccnc2)cc1 [NCGC00685364-01, Tucidinostat] | – |
| 14.9 µM | 128.1 | 1.1 | 141 | COc1ccc(N(C)c2nc(C)nc3ccccc23)cc1OCCCC(=O)NO [NCGC00685385-01, SKLB-23bb] | – |
| 14.9 µM | 266.8 | 1.1 | 348 | NKL 22 [NCGC00522469-01] | – |
